Assay results: the RNAGym collection of RNA variant scans (doi:10.7554/elife.90254)
Read counts are not given, so values of variants with three or more changes are uncertain.

B1: LINE1-mini (parent)
chain: GGCAGAGCUCAACACAGCGUGGCAAAGUGGCUGUGGCUAGACUGCC

Variants of: B1
Assay: self-cleavage, relative activity (ratio to wild type); higher = more cleavage; in vitro, sequencing; the parent is a self-cleaving ribozyme

Variant | self-cleavage
A4C G19U C23A A25C | 0.06
A4G A14C G35A C37A C45A | 0.01
A4C G7C G17A C42A | 0.17
A4C U38A G40A | 0.23
A4G A6C A16G | 0.83
A4C G5U C45A | 0.08
A4C U20C G30A A41U | 0.01
A4G A12G G22U C31G A39G | 0.02
A4C G35C G44C | 0.02
A4G A6G U20C U28G | 0.05
A4G C8A G21U A24G G35A C37U A39U | 0.03
A4C C31U C37U C45A | 0.04
A4C G22A G40A | 0.09
A4C G40C C46U | 0.06
A4C U9A U20C U32G A39U C42G | 0.01
A4C G5C G7A A12C G17U A25G | 0.02
A4C U9A C45G | 0.02
A4C U9A C45U | 0.04
A4C U9A A39U A41G C45G | 0
A4C G5U A41U | 0.08
A4C G5A C18G G29U A41G G44A | 0.16

Variant | self-cleavage
A4G C8U C18A G21A C23A | 0.03
A4G C10G G22A U28G G30A | 0.05
A4C U34C C46U | 0.05
A4G A12G G35U | 0
A4G A25U G33U | 0.04
A4C G22U C42G | 0.05
A4G A11C A14G U43A | 0.01
A4C G29C C45G | 0.15
A4G A16G G19U G40C | 0.03
A4G A11U A26C G27A | 0.01
A4C G7C U20A | 0.33
A4C G27C U32C U34C G44U C45U | 0.02
A4G C8G A26U G27U U28G C31G | 0
A4G C8U G21U A26C U38G | 0.01
A4C G5A G7C C23U | 0.89
A4G A16U G17U G40A A41C | 0.04
A4C U20G U34A C37G | 0.02
A4G A16U G17A A41G | 0.04
A4G C10A A12U G33C | 0.03
A4C G27A U34C G40U C45U | 0.07
A4G A6G G36U A41G | 0.02

Variant | self-cleavage
A4G A11C A12C G22U G33A A41G | 0.02
A4C G21U G29U | 0.04
A4C U34A G35A | 0.04
A4C U34A G35C | 0.09
A4G A12G G44U | 0.03
A4C U9A U28A C46G | 0.05
A4G C10A U20G U34C | 0.02
A4G C10A A25C | 0.04
A4G C8G G22A C42U | 0.01
A4C G17C A24U C31G G40U | 0.06
A4C G17U C45U | 0.02
A4G A12G G33C | 0.06
A4G A25G G29U | 0.2
A4G A25G A41U | 0.03
A4G C10A A12C | 0.1
A4C G7C G17A U43A | 0.31
A4C G7U C8U C10G G22U C23A C42G | 0.01
A4C U34G G36U C42U | 0
A4G A41C U43C | 0.01
A4G A11G A25C | 0.04
A4C C23U U32G | 0.23

Variant | self-cleavage
A4G A12G C15A A25U U43A | 0.01
A4G C10G A12C | 0
A4G C10G A12G | 0.05
A4C C31G G36C U43G | 0.11
A4C C23A G40A | 0.15
A4C U9A G19A G29U C31G G36C | 0.08
A4C G35A C46U | 0.05
A4C G17A G36A | 0.11
A4C U20A A26G C46U | 0.12
A4G A6C A25G A26U | 0.01
A4C G33A G36A | 0.16
A4G C8G A11C G19C G35U G36U | 0
A4C U28C G33A G35A | 0.01
A4C G19C C23A | 0.06
A4C U20G G40C C45G | 0.15
A4C G17A C31U C45A | 0.11
A4C U28A U34A U43C G44U C46A | 0.03
A4C G17U A39C C46A | 0.06
A4C U9C U43C C45A | 0.03
A4G A12G A14C C18G | 0
